The text below walks through data of paper PMC4336329 (PLoS ONE, 2015).

SMILES strings stand for the structures. The campaign covered roughly 310,000 compounds. About 2,200 (0.71%) showed an effect of 50% or more. Effects have a minus sign here. This is one part of the list.

In this assay the target is human ether-à-go-go-related gene (hERG) potassium channel (human, UniProt Q12809). Put plainly: primary screen, population patch clamp on CHO cells stably expressing hERG.
Sequence of human ether-à-go-go-related gene (hERG) potassium channel (Q12809 whole entry, looked up): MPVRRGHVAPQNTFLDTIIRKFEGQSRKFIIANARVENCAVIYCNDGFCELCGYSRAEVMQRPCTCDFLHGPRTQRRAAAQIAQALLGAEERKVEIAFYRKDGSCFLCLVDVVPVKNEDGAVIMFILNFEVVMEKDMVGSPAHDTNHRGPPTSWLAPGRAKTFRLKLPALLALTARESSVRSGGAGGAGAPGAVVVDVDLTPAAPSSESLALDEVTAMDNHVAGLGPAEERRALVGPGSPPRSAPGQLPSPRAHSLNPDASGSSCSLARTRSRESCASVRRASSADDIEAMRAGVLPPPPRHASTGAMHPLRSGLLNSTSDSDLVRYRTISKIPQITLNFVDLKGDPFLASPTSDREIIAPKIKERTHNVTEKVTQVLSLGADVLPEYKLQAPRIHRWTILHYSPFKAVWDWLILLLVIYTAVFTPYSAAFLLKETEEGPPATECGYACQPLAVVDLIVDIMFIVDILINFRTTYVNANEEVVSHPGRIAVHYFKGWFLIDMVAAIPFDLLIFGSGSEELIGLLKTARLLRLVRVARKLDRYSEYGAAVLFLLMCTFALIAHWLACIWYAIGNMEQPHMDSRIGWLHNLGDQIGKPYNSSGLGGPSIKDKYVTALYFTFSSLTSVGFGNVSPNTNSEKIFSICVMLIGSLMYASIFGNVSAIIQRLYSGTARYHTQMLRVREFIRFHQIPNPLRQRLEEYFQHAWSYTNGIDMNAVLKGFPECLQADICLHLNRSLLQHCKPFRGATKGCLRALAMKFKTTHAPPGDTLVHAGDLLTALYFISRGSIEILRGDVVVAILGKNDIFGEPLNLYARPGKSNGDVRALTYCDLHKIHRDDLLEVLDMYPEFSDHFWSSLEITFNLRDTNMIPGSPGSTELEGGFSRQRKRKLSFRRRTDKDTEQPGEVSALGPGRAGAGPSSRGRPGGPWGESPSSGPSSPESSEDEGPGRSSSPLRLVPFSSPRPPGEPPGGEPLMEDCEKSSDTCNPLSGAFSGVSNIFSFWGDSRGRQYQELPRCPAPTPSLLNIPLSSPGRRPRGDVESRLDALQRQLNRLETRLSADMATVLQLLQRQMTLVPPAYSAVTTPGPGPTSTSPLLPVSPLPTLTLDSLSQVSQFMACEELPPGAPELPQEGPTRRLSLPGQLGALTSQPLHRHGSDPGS
For the compound `CCOC(=O)C1C(=O)C=C(c2ccc(C)cc2)CC1c1cccc([N+](=O)[O-])c1` (stereo not shown), the “hERG current change (%, negative = inhibition) at 1uM” value is on record as 7.82%. In the case of `CO/N=C1\CCCc2c(C(=O)NN)sc(SC)c21` it was 12.5%; in that of `Fc1ccc(-c2ccnc3nc(N4CCN(c5ccccc5)CC4)nn23)cc1`, -3.15%. In the case of `Cc1c(C(=O)NCc2cccnc2)sc2nc(-c3ccccc3)cn12` it was -7.66%; in that of `CC(=O)N/C(=C/c1ccc(OS(=O)(=O)c2ccc(C)cc2)cc1)C(=O)NCCCO`, 4.99%. As for `Cl.O=C(CCN1CCN(CCO)CC1)Nc1ccc(C2CCCC2)cc1`, the “hERG current change (%, negative = inhibition) at 1uM” value is -2.4%. As for `Cc1ccc(C(=O)Nc2cccc(C(=O)N/N=C/c3ccc(F)cc3)c2)cc1`, the “hERG current change (%, negative = inhibition) at 1uM” value was found to be 10.7%. In the case of `O=C(CCCn1c(=S)[nH]c2cc3c(cc2c1=O)OCO3)N1CCN(c2ccccc2F)CC1` it was 10.3%. In the case of `COc1ccc(C(=O)[C@H]2[C@H]3C(=O)N(c4ccc(OC(C)=O)cc4)C(=O)[C@H]3C3C=CC=NN32)cc1` (stereo partly shown) it was 11.1%; in that of `O=C(CNC(=O)c1cccnc1)N/N=C/c1cccnc1`, 7.34%; in that of `Cc1nnc(Sc2cc(C(=O)NCCCOC(C)C)c3ccccc3n2)s1`, 0.612%. In the case of `Cc1cc(C(=O)Nc2cccc(O)c2)co1` it was 14.1%. With `C=CCN1C(=O)CS/C1=N/c1nccs1`, the “hERG current change (%, negative = inhibition) at 1uM” value is on record as -3.15%. As for `COc1ccc(C=O)cc1CN1CCCN(Cc2ccc(Cl)cc2)S1(=O)=O`, the “hERG current change (%, negative = inhibition) at 1uM” value came out at 14.1%.

Consider `CN(C(=O)c1ccncc1)C1CCCN(Cc2ccccc2F)C1` (stereo not shown), for which the “hERG current change (%, negative = inhibition) at 1uM” value was found to be 12.1%. In the case of `NS(=O)(=O)c1ccc(CCNC(=O)CCCOc2ccccc2)cc1` it was 2.47%. In the case of `C[C@@H](NC(=O)c1coc(=O)c(Br)c1)c1ccccc1` it was 9.7%.

For the compound `Cn1cc(CC(=O)N2CCN(c3ccccc3F)CC2)c2ccccc21`, the “hERG current change (%, negative = inhibition) at 1uM” value came to 22%.

As to `Cc1ccccc1C(=O)NNC(=O)Cc1ccccc1`, the “hERG current change (%, negative = inhibition) at 1uM” value was found to be 4.51%. In the case of `CCOC(=O)c1c(C)[nH]c(C(=O)COC(=O)c2oc3ccccc3c2C)c1C`, the “hERG current change (%, negative = inhibition) at 1uM” value stood at 11.1%.

Consider `O=C(COc1ccccc1)OC(C(=O)c1ccccc1)c1ccccc1` (stereo not shown), for which the “hERG current change (%, negative = inhibition) at 1uM” value came out at 14.1%. For the compound `COc1ccc(NC(=O)Nc2ccc3c(c2)N(C)C(=O)CS3)cc1OC`, the “hERG current change (%, negative = inhibition) at 1uM” value came out at 7.61%. For `COc1cccc(NC(=O)c2cc(S(=O)(=O)N3CCc4ccccc43)cn2C)c1`, the “hERG current change (%, negative = inhibition) at 1uM” value is 19.2%.

On to `Nc1c(C(=O)CSc2nnc(-c3ccccc3)o2)c(=O)[nH]c(=O)n1C1CC1`, for which the “hERG current change (%, negative = inhibition) at 1uM” value turned out to be 14.9%. As for `COc1ccc(C2(O)CCN(CCCCOc3ccccc3)CC2)cc1`, the “hERG current change (%, negative = inhibition) at 1uM” value was -43.9%. In the case of `COc1ccccc1C(=O)N/N=C/c1ccc2c(c1)OCO2` it was 16.7%; in that of `Cc1cc(C)c2ccc(NN)nc2c1O`, 8.88%. In the case of `Cc1ccc(C(=O)Cn2cnc3ccccc3c2=O)cc1` it was 15.6%; in that of `Cc1ccc(-c2cnc(NC(=O)CCC(=O)N(C)Cc3ccccc3)n2C)cc1`, 0.527%. In the case of `O=[N+]([O-])c1cccc(C(=Nc2ccccc2Cl)NO)c1` it was 4.3%; in that of `Oc1ccc(/C=N/N=C(c2ccccc2)c2ccccc2)c(O)c1O`, 6.7%; in that of `Cc1ccc(-n2ncc3c2CC(C)(C)CC3NC(=O)C2CCOCC2)cc1` (stereo not shown), -8.93%. For the compound `Nn1c(SCCOc2ccc(Cl)cc2)nnc1-c1cccnc1`, the “hERG current change (%, negative = inhibition) at 1uM” value was 23.1%. In the case of `O=C(N1CCOCC1)N1CCN(Cc2ccccc2)CC1` it was 3.97%; in that of `O=c1nc(N/N=C/c2c[nH]c3ccccc23)cn[nH]1`, 26%. Turning to `CN(C)c1ccc(/C=C2/NC(=O)NC2=O)cc1`, the “hERG current change (%, negative = inhibition) at 1uM” value is 17.4%. In the case of `O=C(Nc1cc(Cl)ccc1Oc1ccccc1)c1ccccc1F` it was 10%; in that of `O=C(c1ccc2c(c1)OCO2)N1CCN(S(=O)(=O)N2CCCCC2)CC1`, 9.32%; in that of `CN(c1ccccc1N(C)S(=O)(=O)c1ccccc1)S(=O)(=O)c1ccccc1`, 6.7%. In the case of `Cc1ccc(Nc2cc(C)c(O)c(C)c2)cc1` it was 12%; in that of `Cc1nc(CN2CCOCC2)cc(=O)[nH]1`, -3.69%. Consider `CC(C)NC(=O)C1CCN(C2CCN(Cc3nc4ccccc4s3)CC2)CC1`, for which the “hERG current change (%, negative = inhibition) at 1uM” value was -17.1%. In the case of `COC(=O)c1cccc(NC(=O)NC(=O)c2ccccc2Cl)c1` it was 14.2%; in that of `Cc1ccc(C(=O)CN(CCC(=O)O)C(=O)c2ccncc2)cc1`, 12.1%; in that of `COc1cc2c(cc1NC(=O)CSCC(=O)O)oc1ccccc12`, 11.9%. Consider `Cc1cc(Cl)ccc1OCC(=O)NCCOC(=O)Nc1sc(=S)n(C)c1C`, for which the “hERG current change (%, negative = inhibition) at 1uM” value worked out at 9.18%.
